Among all 150,000 compounds or so, about 540 (0.36%) showed an effect of 50% or more. Some of the results follow.

The text below walks through data of ChEMBL document CHEMBL4888484, “Replenishing the malaria drug discovery pipeline: Screening and hit evaluation of the MMV Hit Generation Library 1 (HGL1) against asexual blood stage Plasmodium falciparum ,using a nano luciferase reporter read-out” (2022).

The test system of this assay is Plasmodium falciparum. As to the kind of experiment: Primary screen in NF54 nanoGlo assay, in single point, at 2uM, 72h; a lower Z score goes with more inhibition. It is filed as functional, Erythrocyte. Particulars: timepoint 72 hour.
Usually % Inhibition stands for the relative decrease from the control value, in per cent. As to `Cc1cccc(NC(=O)[C@@H](C#N)C(=O)C2CCC2)c1`, the “% Inhibition” value worked out at 31% and the Z score is reported as -0.83.
For `Cc1nc2cc(N3CCC(C(=O)NCc4cccs4)CC3)cnc2nc1C` the same measures were -9% and 1.4.
The corresponding values for `CCn1cc(C)c(C(=O)O)c1CC(=O)Nc1ccc(C)c(C)c1` are -17% and 2.28.
The corresponding values for `C[C@H](NC(=O)NCc1nccn1C)c1noc(-c2ccccc2)n1` are -4% and 0.49.
As for `Cc1cccc(C)c1Oc1ccccc1NC(=O)CCc1nnc[nH]1`, the “% Inhibition” value is listed as 36% and the Z score is reported as -4.88.
The corresponding values for `COc1ccc(-c2nc([C@H]3CC(=O)N(c4ccc(Cl)cc4)C3)no2)cc1F` are -1% and 0.14.
On to `Cc1c(F)cccc1NC(=O)N1CC[C@H](N(CCCN2CCCC2)S(C)(=O)=O)C1`, for which the “% Inhibition” value is listed as 0% and the Z score is -0.02.
`COCCN1C[C@@H](Cc2ccc3oc(-c4cccnc4)nc3c2)CC1=O`: the “% Inhibition” value is on record as -12% and the Z score is on record as 2.07.
The corresponding values for `CCCNS(=O)(=O)c1ccc(OC)c(C(C)(C)C)c1` are -4% and 0.54.
In the case of `O=C(N[C@@H]1CN(Cc2cccc(F)c2F)C[C@H]1CO)c1ccccc1`, the “% Inhibition” value was found to be 2% and the Z score is -0.29.
The corresponding values for `CCN(C(=O)CCN)[C@@H](C)c1cccc(C(F)(F)F)c1` are -8% and 1.49.
The corresponding values for `O=C(c1ncccn1)N1CC[C@H](Oc2cc(C(F)(F)F)ccn2)C1` are -8% and 1.48.
The corresponding values for `O=C(OCC(=O)N1CCNC1=O)c1cc(Cl)c[nH]1` are 10% and -1.8.
Consider `Cc1cc(C(=O)NCCN(C)CCc2ccccc2)cc(C)n1`, for which the “% Inhibition” value is given as -8% and the Z score worked out at 1.11.
For `CN(C[C@H]1CCOC1)c1ncnc2[nH]ccc12` the same measures were -15% and 1.49.
The corresponding values for `CNC(=O)[C@@H](C)CN(C)Cc1ccc(Cl)cc1C` are -7% and 0.86.
As to `Cc1ccccc1Cn1c(=O)c(C(=O)NCc2ccc(F)cc2)nn(-c2ccccc2F)c1=O`, the “% Inhibition” value is recorded as -6% and the Z score was 0.97.
For `O=C(CC1CCN(C(=O)c2nnc(C(=O)Nc3ccc(Cl)cc3)s2)CC1)NCCN1CCCCC1` the same measures were -7% and 1.08.
With `O=C(C1CCc2ccccc2CC1)N1CCC(CO)CC1`, the “% Inhibition” value was -12% and the Z score was determined as 1.87.
For `Cc1nn(-c2ccccc2)c2sc(-c3noc(CNS(=O)(=O)c4ccccc4)n3)cc12`, the “% Inhibition” value is 9% and the Z score is on record as -1.03.
The corresponding values for `O=C(NCCOc1cccc(F)c1)[C@@H]1CCCO1` are 5% and -0.77.
Consider `CC(=O)NC[C@H]1CN(CCCc2cnccc2C)CCO1`, for which the “% Inhibition” value is on record as 34% and the Z score is recorded as -3.71.
The corresponding values for `Cn1nc(N)c2cc(C(F)(F)F)ccc21` are 37% and -1.02.
For `O=C(NCc1ccccc1Cl)c1ccc(N2CCCCS2(=O)=O)cc1` the same measures were -19% and 2.47.
For `CC(C)CCn1cc(C(=O)N2CCC[C@@H]2Cc2ccc(F)cc2)nn1` the same measures were -10% and 1.6.
As for `O=C(c1cc(-c2cccc(Cl)c2)[nH]n1)N1CCN(C(c2ccccc2)c2ccccc2)CC1`, the “% Inhibition” value is on record as -7% and the Z score came to 1.05.
For `COc1ccc(CN2C(=O)[C@H](CC(=O)Nc3ccc4[nH]ccc4c3)N=C2O)cc1OC` the same measures were 8% and -1.02.
For `Cc1cccc(CN(C)C(=O)NCC2(N)CCC2)c1C` the same measures were -3% and 0.4.
For `O=C(Cn1ncnn1)N1CCC(c2ccc(Cl)cc2Cl)CC1` the same measures were -3% and 0.35.
With `COc1cc([C@H](C)NC(=O)Cc2ccncc2)cc(OC)c1OC`, the “% Inhibition” value is -16% and the Z score is recorded as 2.15.
Take `O=c1c2cccn2cnn1CCC1OCCO1`: the “% Inhibition” value worked out at 6% and the Z score is given as -0.73.
The corresponding values for `CC(C)(C)C1=CCN(CCNC(=O)c2c[nH]nn2)CC1` are -4% and 0.8.
The corresponding values for `CC(C)(O)CC(=O)NCCc1cnn(Cc2ccccc2)c1` are -5% and 0.85.
The corresponding values for `CN1CCc2cc(NC(=O)c3ccnn3C3CCC3)ccc2C1=O` are 0% and -0.09.
With `COCCCN1C(=O)c2ccccc2NC12CCCC2`, the “% Inhibition” value is given as 2% and the Z score is given as -0.27.
In the case of `C#C[C@H](C)NC(=O)c1c(Br)cccc1Br`, the “% Inhibition” value is -4% and the Z score worked out at 0.84.
For `CC(C)(C)c1coc(CNC(=O)N[C@H]2C[C@@H]2c2ccc(F)cc2F)n1` the same measures were 1% and -0.24.
In the case of `O=C(c1csc(-c2ccnc(N3CCCC3)c2)n1)N1CCN(c2ccccc2)CC1`, the “% Inhibition” value is given as -11% and the Z score turned out to be 1.5.
With `CC(=Cc1ccccc1)CN1CC[C@H](NS(C)(=O)=O)C1`, the “% Inhibition” value was -10% and the Z score came out at 0.98.
For `C=CCc1c(C)nc(N)nc1N1CCC2(CC[C@H](CNC(C)=O)O2)CC1` the same measures were -9% and 1.4.
For `CNC(=O)CN(Cc1nc(C)cs1)C[C@H]1CCCO1` the same measures were 1% and -0.17.
Turning to `COCC1(CCNC(=O)c2c(C(C)C)nn(C)c2Cl)CC1`, the “% Inhibition” value stood at 16% and the Z score is -2.02.
For `C[C@@](CO)(Cc1ccc(Cl)cc1)NC(=O)c1ccc(C(F)(F)F)s1` the same measures were 10% and -1.22.
